Patent EP4524159A1, “ANTIBODY AND USE THEREOF” (priority 2022, dated 2023)

Legend:
[1] = Drug : antibody ratio (DAR) of antibody-vc-MMAE conjugates by hydrophobic HPLC; settings: humanized antibody-vc-MMAE conjugates
Experimental: The specific operation was to reduce each antibody and the control antibody CD27H10 (27H10 antibody in WO2018112334A1) with a 2-fold molar amount of […] (TECP) at 4 °C for 1 hour. A 7-fold molar amount of vcMMAE was then added for ligation at 4-25 °C for 1 h, and then the reaction mixture was dialyzed against 1 × PBS pH 8.0 and filtered for sterilization. Drug : antibody ratio (DAR) was detected by hydrophobic kurtosis with HLPC, and the molecular coupling results are shown in Table 14. Table 14 DAR values of antibody-drug conjugates
The humanized antibodies 1CP-125, 1CP-117 and 1CP-152 were subjected to linking to form ADC, and the linking process was the same as in example 18. Table 18 DAR values of antibody-drug conjugates

[2] = Thermal stability detection of ADC molecules (UNcle: Tm, Tagg, DLS); type: physicochemical
Experimental: The 1CP-152 antibody and the control antibody CD27H10 were respectively linked to the vc-MMAE with reference to the method of example 18, and the target DAR was 4. After that, the molecular physical and chemical properties were detected and analyzed, and the specific analysis method was as follows:
(§1) The denaturation temperature (Tm value), aggregation temperature (Tagg value) and hydration kinetic diameter of ADC molecules were measured by UNcle multifunctional protein stability analysis system. Wherein, the Tm value was based on endogenous fluorescence spectroscopy method, and was fitted and calculated according to BCM algorithm, the Tagg value was measured by static light scattering (SLS) technology, and the hydration dynamics diameter was measured by dynamic light scattering (DLS) technology. • SEC purity detection: The purity of ADC molecules was analyzed by high performance liquid chromatography (HPLC). • Liquid chromatograph: Shimadzu LC-2030C Plus • chromatographic column: TSKgel G3000SWXL, 7.8× 300 mm, 5 µm, TOSOH • mobile phase: 61 mmol/L Na2HPO4, 39 mmol/L NaH2PO4, 200 mmol/L NaCl, pH6.8 • flow rate: 1.0 ml/min • Detection wavelength: UV 220 nm • column temperature: 30 °C • Sample chamber temperature: 10 °C • Injection volume: 20 µg • Isocratic running time: 30 min

[3] = SEC purity (HPLC) of ADC molecules after storage at 2 to 8°C; type: physicochemical; settings: for HMW / LMW / MP: 2 to 8°C, peak area normalization; for HMW: SEC-HPLC aggregate peak; for LMW: SEC-HPLC low molecular weight impurity peak; for MP: SEC-HPLC main (monomer) peak
Experimental: as §1
Quantitative analysis of the results was performed using peak area normalization method. If automatic integration failed due to reasons such as baseline drift, retention time variation, peak shape change or other reasons, integration parameters should be adjusted or the spectrum should be manually integrated. The main peak (MP) was the monomer peak, the peak with a retention time before the main peak was the aggregate peak (HMW), and the peak with a retention time after the main peak was the low molecular weight impurity peak (LMW).
In addition, 1CP-152-MMAE and CD27H10-MMAE were placed at 2 to 8°C for different time (0 days, 3 days, 5 days) to investigate the change in purity of the two molecules. […] Table 17 Long-term stability of ADC molecules

[4] = as printed in Table 19 (HCC1806)
[5] = as printed in Table 20 (HCT116)

Row | Molecule | DAR [1, 4] | DAR [1, 5] | Tagg/°C ([2]; aggregation temperature, static light scattering) [°C] | Tm/°C ([2]; denaturation temperature, endogenous fluorescence) [°C] | Mean particle size/nm ([2]; hydration kinetic diameter, dynamic light scattering) [nm] | HMW ([3]; D0) [%] | LMW ([3]; D0) [%] | MP ([3]; D0) [%] | HMW ([3]; D3) [%] | LMW ([3]; D3) [%] | MP ([3]; D3) [%] | HMW ([3]; D5) [%] | LMW ([3]; D5) [%] | MP ([3]; D5) [%] | change in purity ([3]; after leaving at 2-8°C for 5 days, SEC-HPLC)
1 | 1CP-152-MMAE: humanized antibody 1CP-152 linked to vc-MMAE, target DAR 4 (conjugate) heavy: EVQLVESGGGLVQPGRSLRLSCTTSGLTFTHYHMSWVRQAPGKGLEWVAIIRNKAYGYTTDYSASVRGRFTISRDDSKSILYLQMNSLKTEDTAVYYCVREGGYGYDGTFAYWGQGTLVTVSS[left out - human IgG1 constant region] light: DIQMTQSPSSLSASVGDRVTITCRASESVDNYGISFMNWFQQKPGQAPKLLIYAASNQGSGVPSRFSGSGSGTDFTLTISSMQPEDFATYYCQQSKEVPRTFGGGTKVEIKRTVAAPSVFIFPPSDEQLKSGTASVVCLLNNFYPREAKVQWKVDNALQSGNSQESVTEQDSKDSTYSLSSTLTLSKADYEKHKVYACEVTHQGLSSPVTKSFNRGEC | 4.5 | 4.5 | 64.1 | 76.6 | 12.8 | 1.9 | 0.9 | 97.2 | 1.9 | 0.8 | 97.3 | 1.9 | 0.8 | 97.3 | did not change
2 | 1CP-117-MMAE: humanized antibody 1CP-117 linked to vc-MMAE (conjugate) heavy: QVQLVQSGSELKKPGASVKVSCKASGYTLTDFSMHWVRQAPGQGLEWMGWINTETGAPTYADDFKGRFVLSLDTSVSTAYLQISSLKAEDTAVYYCSRGRDYDPHFDYWGQGTLVTVSS[left out - human IgG1 constant region] light: EIVLTQSPATLSLSPGERATLSCRASQSISDFLHWYQQKPGQSPRLLIKYASQSISGIPARFSGSGSGSDFTLTISSVEPEDFAVYYCQSAHSFPYTFGQGTKLEIKRTVAAPSVFIFPPSDEQLKSGTASVVCLLNNFYPREAKVQWKVDNALQSGNSQESVTEQDSKDSTYSLSSTLTLSKADYEKHKVYACEVTHQGLSSPVTKSFNRGEC | 4.8 | 4.8 | – | – | – | – | – | – | – | – | – | – | – | – | –
